{"source": "paper PMC4336329", "about": "(PLoS ONE, 2015)", "note": "About 2,200 (0.71%) of roughly 310,000 compounds showed an effect of 50% or more. Effects have a minus sign here. Some of the results follow."}
{"target": "human ether-à-go-go-related gene (hERG) potassium channel (human, UniProt Q12809)", "sequence (Q12809 whole entry, looked up)": "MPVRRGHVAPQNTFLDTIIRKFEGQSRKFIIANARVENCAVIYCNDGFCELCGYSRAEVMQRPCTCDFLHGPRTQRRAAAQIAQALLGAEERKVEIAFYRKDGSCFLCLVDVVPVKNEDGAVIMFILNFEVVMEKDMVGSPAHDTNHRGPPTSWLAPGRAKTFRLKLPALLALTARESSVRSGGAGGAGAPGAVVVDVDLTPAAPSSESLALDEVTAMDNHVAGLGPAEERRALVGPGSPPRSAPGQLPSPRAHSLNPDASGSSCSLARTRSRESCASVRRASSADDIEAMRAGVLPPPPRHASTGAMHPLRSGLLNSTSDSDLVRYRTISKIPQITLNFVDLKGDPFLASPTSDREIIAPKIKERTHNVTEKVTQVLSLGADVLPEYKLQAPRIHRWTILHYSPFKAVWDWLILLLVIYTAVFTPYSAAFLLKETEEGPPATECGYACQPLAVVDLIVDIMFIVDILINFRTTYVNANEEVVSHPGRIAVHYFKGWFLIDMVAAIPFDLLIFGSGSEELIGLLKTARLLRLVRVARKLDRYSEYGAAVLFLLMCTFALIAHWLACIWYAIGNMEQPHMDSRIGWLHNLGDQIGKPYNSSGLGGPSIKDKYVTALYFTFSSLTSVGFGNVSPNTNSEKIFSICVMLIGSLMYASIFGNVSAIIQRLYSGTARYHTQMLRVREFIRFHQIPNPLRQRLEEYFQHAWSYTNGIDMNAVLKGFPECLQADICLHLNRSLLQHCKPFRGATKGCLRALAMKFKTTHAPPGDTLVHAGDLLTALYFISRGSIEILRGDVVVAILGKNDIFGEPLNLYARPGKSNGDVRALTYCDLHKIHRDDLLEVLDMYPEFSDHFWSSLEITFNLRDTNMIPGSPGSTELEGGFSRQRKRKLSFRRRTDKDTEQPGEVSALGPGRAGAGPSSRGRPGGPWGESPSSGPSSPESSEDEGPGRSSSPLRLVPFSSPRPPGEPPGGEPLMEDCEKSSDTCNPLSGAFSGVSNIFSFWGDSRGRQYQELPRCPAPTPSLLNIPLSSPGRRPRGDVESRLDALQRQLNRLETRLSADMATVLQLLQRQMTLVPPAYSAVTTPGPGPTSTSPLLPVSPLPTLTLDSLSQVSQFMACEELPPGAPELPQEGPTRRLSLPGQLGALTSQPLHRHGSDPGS", "experiment": "primary screen, population patch clamp on CHO cells stably expressing hERG", "units": {"hERG current change (%, negative = inhibition) at 1uM": "%"}}
{"compound": "COc1ccc2c(c1)[nH]c1c(=O)n(CCN(C)C)cnc12", "hERG current change (%, negative = inhibition) at 1uM": 8.49}
{"compound": "O=C(Nc1ccccc1-c1nc2ccccc2[nH]1)c1sc2ccccc2c1Cl", "hERG current change (%, negative = inhibition) at 1uM": 7.29}
{"compound": "O=C(CN1CCOCC1)Nc1ccc(NC(=O)CN2CCOCC2)c(Cl)c1", "hERG current change (%, negative = inhibition) at 1uM": 4.33}
{"compound": "CCN1CCCC1CNCc1cccc(OC)c1OCc1ccccc1.Cl", "note": "(stereo not shown)", "hERG current change (%, negative = inhibition) at 1uM": 7.91}
{"compound": "CC(C)Cc1nnc(NC(=O)CCC(=O)N2CCN(c3ccccn3)CC2)s1", "hERG current change (%, negative = inhibition) at 1uM": 2.39}
{"compound": "NNC(=O)CN1C(c2ccc(Br)cc2)=Nc2ccc(Br)cc2C1c1ccccc1", "note": "(stereo not shown)", "hERG current change (%, negative = inhibition) at 1uM": -7.34}
{"compound": "CC(OC(=O)c1ccncc1)C(=O)NC1CCCC1", "note": "(stereo not shown)", "hERG current change (%, negative = inhibition) at 1uM": 7.66}
{"compound": "S=C(c1ccc(Br)cc1)N1CCCC1", "hERG current change (%, negative = inhibition) at 1uM": 7.34}
{"compound": "O=C(c1cnn2c1NC(c1ccc(Br)cc1)CC2C(F)(F)F)N1CCN2CCCC2C1", "note": "(stereo not shown)", "hERG current change (%, negative = inhibition) at 1uM": -23.2}
{"compound": "Cc1ccc2cc(/C=N/NC(=O)c3ccc(F)cc3)c(Cl)nc2c1", "hERG current change (%, negative = inhibition) at 1uM": -0.541}
{"compound": "NC(=O)Nc1ccc(C(=O)OCC(=O)N2CCc3ccccc3C2)cc1", "hERG current change (%, negative = inhibition) at 1uM": 2.08}
{"compound": "CCC(C(=O)NCc1ccccn1)n1c2ccccc2c2nc(=O)cc(C)n21", "note": "(stereo not shown)", "hERG current change (%, negative = inhibition) at 1uM": 4.44}
{"compound": "CCCC(=O)Nc1cc(-c2nnc(OC)c3ccccc23)ccc1N1CCOCC1", "hERG current change (%, negative = inhibition) at 1uM": -8.8}
{"compound": "COc1ccc(C2CC(c3ccc(C)cc3)=NN2C(=O)c2ccccc2)cc1", "note": "(stereo not shown)", "hERG current change (%, negative = inhibition) at 1uM": 15.2}
{"compound": "CCN1CCCC1CNCc1cccc(OC)c1OCc1ccccc1F.Cl", "note": "(stereo not shown)", "hERG current change (%, negative = inhibition) at 1uM": -18.6}
{"compound": "Cc1cccc(Nc2nc(CC(=O)O)cs2)c1", "hERG current change (%, negative = inhibition) at 1uM": 14}
{"compound": "Cn1nnnc1SCc1csc(C2C(C#N)=C(N)OC3=C2C(=O)CCC3)c1", "note": "(stereo not shown)", "hERG current change (%, negative = inhibition) at 1uM": 4.66}
{"compound": "COc1cc(CN2CCc3c([nH]c4ccccc34)C2)cc(OC)c1", "hERG current change (%, negative = inhibition) at 1uM": -22.2}
{"compound": "COc1ccc(-c2csc(NC(=O)CS(=O)(=O)c3ccc(F)cc3)n2)cc1OC", "hERG current change (%, negative = inhibition) at 1uM": -6.48}
{"compound": "CC1CC1C(=O)OCC(=O)Nc1cccc(F)c1", "note": "(stereo not shown)", "hERG current change (%, negative = inhibition) at 1uM": 7.95}
{"compound": "O=C1CC(c2ccco2)Cc2nc(NCC3CCCO3)ncc21", "note": "(stereo not shown)", "hERG current change (%, negative = inhibition) at 1uM": 4.64}
{"compound": "Cc1ccc2c(c1)N(CCC(=O)NCCCN1CCCC1)C(=O)C(C)O2", "note": "(stereo not shown)", "hERG current change (%, negative = inhibition) at 1uM": 23.9}
{"compound": "Cc1nn2c(NCc3ccccn3)c3c(nc2c1-c1ccccc1)CCC3", "hERG current change (%, negative = inhibition) at 1uM": 5.27}
{"compound": "Cc1ccc(C)c(OCC(=O)Nc2ccccc2C(=O)N2CCN(C)CC2)c1", "hERG current change (%, negative = inhibition) at 1uM": 10.7}
{"compound": "CC(C)(C)NC(=O)Nc1nnc(SCC(=O)NC2CCCCC2)s1", "hERG current change (%, negative = inhibition) at 1uM": 5.64}
{"compound": "O=C(NCc1ccccc1)C(=O)c1cn(CC(=O)N2CCOCC2)c2ccccc12", "hERG current change (%, negative = inhibition) at 1uM": 15.3}
{"compound": "Oc1cc2c(cc1CN1CCc3ccccc3C1)OCO2", "hERG current change (%, negative = inhibition) at 1uM": 15.1}
{"compound": "CCc1nnc(NC(=O)C2CCN(c3nc(C)cc(C)n3)CC2)s1", "hERG current change (%, negative = inhibition) at 1uM": 9.93}
{"compound": "COc1cc(C2c3c(oc4cc(C)c(C)cc4c3=O)C(=O)N2c2cc(C)ccn2)ccc1O", "note": "(stereo not shown)", "hERG current change (%, negative = inhibition) at 1uM": 5.48}
{"compound": "O=C(NNC(=O)c1ccc(NC(=O)c2ccccc2)cc1)c1ccccc1", "hERG current change (%, negative = inhibition) at 1uM": 18}
{"compound": "O=C(CO/N=C/c1ccc(OC(F)F)cc1)NCc1ccco1", "hERG current change (%, negative = inhibition) at 1uM": -4.07}
{"compound": "Cc1cccc(C)c1OCCCCCNCCO", "hERG current change (%, negative = inhibition) at 1uM": 14.8}
{"compound": "O=C(N/N=C\\c1cc2c(cc1Cl)OCO2)c1cccnc1", "hERG current change (%, negative = inhibition) at 1uM": 12.5}
{"compound": "O=C(CN1CCC(n2nnc3cc(F)ccc32)CC1)NNC(=O)c1ccccc1", "hERG current change (%, negative = inhibition) at 1uM": 1.57}
{"compound": "CC1CCc2sc(C(=O)N3CCC(C(N)=O)CC3)cc2C1", "note": "(stereo not shown)", "hERG current change (%, negative = inhibition) at 1uM": 14}
{"compound": "COCCN(C(=S)Nc1cccc(Cl)c1C)C(C)c1ccco1", "note": "(stereo not shown)", "hERG current change (%, negative = inhibition) at 1uM": -0.387}
{"compound": "Fc1ccc(-c2csc(-c3ccc(C4SCCS4)cc3)n2)cc1F", "hERG current change (%, negative = inhibition) at 1uM": 10.8}
{"compound": "O=C(OCc1cc(=O)oc2cc(O)ccc12)c1cc(S(=O)(=O)N2CCOCC2)ccc1F", "hERG current change (%, negative = inhibition) at 1uM": 16.5}
{"compound": "CC(CNS(=O)(=O)c1ccc2c(c1)CC(=O)N2C)c1ccccc1", "note": "(stereo not shown)", "hERG current change (%, negative = inhibition) at 1uM": 5.56}
{"compound": "CC(=O)Nc1ccc(S(=O)(=O)Nc2ccc(S(=O)(=O)Nc3ncccn3)cc2)cc1", "hERG current change (%, negative = inhibition) at 1uM": 8.81}
{"compound": "O=c1cc(-c2ccccc2)[nH]c2cc(F)ccc12", "hERG current change (%, negative = inhibition) at 1uM": 8.14}
{"compound": "CSCC[C@H](NC(=O)NCCc1ccc(F)cc1)C(=O)O", "hERG current change (%, negative = inhibition) at 1uM": 7.04}
{"compound": "CCCNC(=O)Nc1nc2ccccc2s1", "hERG current change (%, negative = inhibition) at 1uM": 5.3}
{"compound": "O=C(CNC(c1ccccc1)c1ccccc1)Nc1ccccc1Br", "hERG current change (%, negative = inhibition) at 1uM": 7.78}
{"compound": "COCCn1c(=NC(=O)c2ccc(S(=O)(=O)N3CCc4ccccc4C3)cc2)sc2cc(S(N)(=O)=O)ccc21", "hERG current change (%, negative = inhibition) at 1uM": 7.07}
{"compound": "Cc1cccc(NS(=O)(=O)c2cnc[nH]2)c1", "hERG current change (%, negative = inhibition) at 1uM": 7.05}
{"compound": "COC(=O)c1ccccc1NC(=O)c1cc(-c2ccco2)on1", "hERG current change (%, negative = inhibition) at 1uM": 17.4}
{"compound": "COc1cccc(CN2CCNC(=O)C2CC(=O)NC2CCCCCCC2)c1", "note": "(stereo not shown)", "hERG current change (%, negative = inhibition) at 1uM": 15}
{"compound": "CC(Sc1nc2ccccc2c(=O)n1C)C(=O)Nc1ccc2c(c1)OCCO2", "note": "(stereo not shown)", "hERG current change (%, negative = inhibition) at 1uM": 12.4}
{"compound": "Cc1c(CCO)c(=O)n(C)n1C(=O)c1ccc(Cl)cc1", "hERG current change (%, negative = inhibition) at 1uM": 5.55}
{"compound": "Cc1csc(NC(=O)CSc2nncn2C)n1", "hERG current change (%, negative = inhibition) at 1uM": 12.3}
{"compound": "COc1ccc(C(=O)N2CCN(S(=O)(=O)c3ccc4c(c3)OCCO4)CC2)cc1OC", "hERG current change (%, negative = inhibition) at 1uM": -3.61}
{"compound": "O=C1CCN(CCc2ccccc2)CCN1[C@H](CSc1ccc(Br)cc1)c1ccccc1", "hERG current change (%, negative = inhibition) at 1uM": -18.8}
{"compound": "O=C1CN(C(=O)CN2CCCCC2)C(c2ccccc2)c2cc(Br)ccc2N1", "note": "(stereo not shown)", "hERG current change (%, negative = inhibition) at 1uM": -43.4}
{"compound": "O=C(/C=C/Nc1ccccc1)c1ccc(Cl)cc1Cl", "hERG current change (%, negative = inhibition) at 1uM": 12.9}
{"compound": "CN(c1cc(=O)n2ccccc2n1)C1CCCCC1", "hERG current change (%, negative = inhibition) at 1uM": 9.46}
{"compound": "C[C@@H](NC(=O)[C@@H]1Cc2ccccc2CN1)C(=O)NCC1CCCO1", "note": "(stereo partly shown)", "hERG current change (%, negative = inhibition) at 1uM": 15.6}
{"compound": "CCCCC(=O)Nc1nnc(S(=O)(=O)N(CC)c2ccc(OC)cc2)s1", "hERG current change (%, negative = inhibition) at 1uM": 7.09}
